Test results reported in the supplement of paper PMC9446081.
Screen size: about 39,000 compounds; about 220 (0.56%) showed activity. The list shows a part of the results.

Test system: Escherichia coli K-12 BW25113
Assay: relative growth (OD600 normalised to plate interquartile mean) (fraction); higher = less growth inhibition, active = 0.2 or less
Settings: 50 µM; LB; incubation time: overnight (16-24 h)
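Note: static incubation at 37 °C against the wild-type strain, values averaged over two biological replicates.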

**Q.** How did the relative growth turn out when `C[C@@H]1CN([C@H](C)CO)C(=O)c2cc(NC(=O)CCCN(C)C)ccc2O[C@@H]1CN(C)S(=O)(=O)c1cn(C)cn1` was run?
**A.** inactive: 0.965

**Q.** For `NS(=O)(=O)Cc1ccccc1F`, which relative growth is on record?
**A.** inactive: 0.916

**Q.** For `C[C@@H]1CCCCO[C@@H](CN(C)Cc2ccc(C(=O)O)cc2)[C@@H](C)CN([C@H](C)CO)C(=O)c2cc(NC(=O)NC3CCCCC3)ccc2O1`, which relative growth is on record?
**A.** inactive: 0.986

**Q.** With `C[C@@H]1CN([C@H](C)CO)C(=O)c2cc(C3=CCCC3)cnc2O[C@@H]1CN(C)S(=O)(=O)c1cn(C)cn1` as the molecule, how does the relative growth read?
**A.** inactive: 0.999

**Q.** `COCCNC(=O)C[C@@H]1C[C@H]2c3cc(NC(=O)CN(C)C)ccc3O[C@H]2[C@@H](CO)O1` was tested. Which relative growth did it give?
**A.** inactive: 1.01

**Q.** `Cc1noc(C)c1NC(=O)N(C)C[C@H]1OCCCC[C@@H](C)Oc2ccc(NC(=O)c3ccccc3)cc2C(=O)N([C@@H](C)CO)C[C@@H]1C` was tested. Which relative growth did it give?
**A.** inactive: 0.991

**Q.** Which relative growth does the source give for `CN1CCN(C(=O)C[C@@H]2CC[C@H](NC(=O)Cc3ccccn3)[C@@H](CO)O2)CC1` here?
**A.** inactive: 1.03

**Q.** How did the relative growth turn out when `N#Cc1c(N)n(CCN)c2nc3ccccc3nc12` was run?
**A.** inactive: 0.962

**Q.** For `COC(=O)[C@@H]1CCCC1=O`, which relative growth is on record?
**A.** inactive: 1.03

**Q.** For `Cc1ccc(S(=O)(=O)N(C)C[C@H]2OCCCC[C@@H](C)Oc3ccc(NC(=O)Nc4ccc(C(F)(F)F)cc4)cc3C(=O)N([C@H](C)CO)C[C@@H]2C)cc1`, which relative growth is on record?
**A.** inactive: 0.973

**Q.** `C[C@@H]1CCCCO[C@H](CN(C)Cc2ccccc2)[C@@H](C)CN([C@@H](C)CO)C(=O)c2cc(NC(=O)Nc3ccc4c(c3)OCO4)ccc2O1` was tested. Which relative growth did it give?
**A.** inactive: 1.02

**Q.** With `Cc1ccc(S(=O)(=O)N(C)C[C@@H]2OCCCC[C@@H](C)Oc3ccc(NC(=O)CCC(F)(F)F)cc3C(=O)N([C@@H](C)CO)C[C@H]2C)cc1` as the molecule, how does the relative growth read?
**A.** inactive: 1.04

**Q.** For `CNC(=O)C[C@@H]1CC[C@H]2[C@@H](COC[C@@H](O)CN2C(=O)c2ccc3c(c2)OCO3)O1`, which relative growth is on record?
**A.** inactive: 1.02

**Q.** For `NC1(C(=O)O)CCC1`, which relative growth is on record?
**A.** inactive: 0.982

**Q.** How did the relative growth turn out when `CCOC(=O)[C@H]1C/C=C/C[C@H](C(=O)OCC)C(=O)O[C@H]2[C@@H](OC)O[C@H](CO)[C@@H](OC(=O)c3ccc(Br)cc3)[C@@H]2OC1=O` was run?
**A.** inactive: 0.975

**Q.** How did the relative growth turn out when `C[C@@H]1CN([C@@H](C)CO)S(=O)(=O)c2ccc(-c3ccncc3)cc2O[C@@H]1CN(C)C(=O)c1ccc2c(c1)OCO2` was run?
**A.** inactive: 0.971

**Q.** `C[C@@H]1CN([C@H](C)CO)C(=O)c2cccc(NC(=O)C3CC3)c2O[C@H]1CN(C)Cc1ccc(-c2ccccc2)cc1` was tested. Which relative growth did it give?
**A.** inactive: 1

**Q.** Which relative growth does the source give for `C=CCOC(=O)[C@H]1[C@@H]2C(=O)O[C@@H](c3ccccc3)[C@@H](c3ccccc3)N2[C@@H](c2ccc(OCCOC(=O)[C@@H]3C[C@@H]4C(=O)N[C@@H](CCCCNC(C)=O)C(=O)N4[C@@H]3c3ccc(O)cc3)cc2)[C@]12C(=O)Nc1ccccc12` here?
**A.** inactive: 1.05

**Q.** `C[C@@H]1CCCCO[C@H](CN(C)C(=O)c2ccncc2)[C@H](C)CN([C@H](C)CO)C(=O)c2cc(NC(=O)C3CCCCC3)ccc2O1` was tested. Which relative growth did it give?
**A.** inactive: 0.986

**Q.** For `C[C@@H]1CN([C@H](C)CO)C(=O)Cc2cc(N(C)C)ccc2O[C@@H]1CN(C)C(=O)Nc1ccc2c(c1)OCO2`, which relative growth is on record?
**A.** inactive: 0.986

**Q.** `C[C@H](CO)N1C[C@H](C)[C@H](CN(C)C(=O)Nc2ccc3c(c2)OCO3)OCCCC[C@H](C)Oc2ccc(NC(=O)c3ccncc3)cc2C1=O` was tested. Which relative growth did it give?
**A.** inactive: 0.98

**Q.** `CC(C)NC(=O)Nc1ccc2c(c1)C(=O)N([C@H](C)CO)C[C@@H](C)[C@@H](CN(C)S(=O)(=O)c1ccccc1)O2` was tested. Which relative growth did it give?
**A.** inactive: 0.996

**Q.** For `Cc1noc(C)c1NC(=O)Nc1ccc2c(c1)CC(=O)N([C@@H](C)CO)C[C@H](C)[C@@H](CN(C)Cc1ccc(C(=O)Nc3ccccc3N)cc1)O2`, which relative growth is on record?
**A.** inactive: 1.01

**Q.** `CC1(C)CCC(CN2CCN(c3ccc(C(=O)NS(=O)(=O)c4ccc(NCC5CCOCC5)c([N+](=O)[O-])c4)c(Oc4cnc5[nH]ccc5c4)c3)CC2)=C(c2ccc(Cl)cc2)C1` was tested. Which relative growth did it give?
**A.** inactive: 0.99

**Q.** `C[C@@H]1CN([C@@H](C)CO)C(=O)c2cc(C#Cc3ccccc3)cnc2O[C@H]1CN(C)S(=O)(=O)c1ccccc1F` was tested. Which relative growth did it give?
**A.** inactive: 1.01

**Q.** `O=C(C[C@H]1CC[C@@H]2[C@H](COC[C@H](O)CN2C(=O)Nc2ccc(Cl)c(Cl)c2)O1)NCc1ccncc1` was tested. Which relative growth did it give?
**A.** inactive: 0.968

**Q.** `COc1ccc(NC(=O)Nc2cccc3c2O[C@@H](CN(C)Cc2ccc(-c4ccccc4)cc2)[C@@H](C)CN([C@H](C)CO)C3=O)cc1` was tested. Which relative growth did it give?
**A.** inactive: 0.993

**Q.** For `CC(C)c1ccc(N2C=Nc3ccc(C(C)C)cc3C2)cc1`, which relative growth is on record?
**A.** inactive: 0.982

**Q.** With `C[C@H]1CN([C@@H](C)CO)C(=O)c2cc(NC(=O)Nc3ccc(C(F)(F)F)cc3)ccc2O[C@H]1CN(C)Cc1ccc(-c2ccccc2)cc1` as the molecule, how does the relative growth read?
**A.** inactive: 1.01

**Q.** `NNC(=O)c1ccncc1` was tested. Which relative growth did it give?
**A.** inactive: 1.04

**Q.** `CO[C@@H](CN(C)S(=O)(=O)c1ccc(Cl)cc1)[C@H](C)CN([C@@H](C)CO)S(=O)(=O)c1cccc(Cl)c1` was tested. Which relative growth did it give?
**A.** inactive: 1.01

**Q.** How did the relative growth turn out when `C[C@@H]1CCCCO[C@@H](CN(C)C)[C@H](C)CN([C@H](C)CO)C(=O)c2cc(NS(=O)(=O)c3cn(C)cn3)ccc2O1` was run?
**A.** inactive: 0.95

**Q.** How did the relative growth turn out when `CC(C)NC(=O)N(C)C[C@H]1Oc2cc(C#Cc3cccc(F)c3)ccc2S(=O)(=O)N([C@H](C)CO)C[C@H]1C` was run?
**A.** inactive: 0.984

**Q.** Which relative growth does the source give for `CC(C)NC(=O)N(C)C[C@@H]1Oc2ccc(NS(=O)(=O)c3ccc(Cl)cc3)cc2CC(=O)N([C@H](C)CO)C[C@@H]1C` here?
**A.** inactive: 0.998

**Q.** `C[C@@H](Oc1ccccc1Cl)c1nc2ccc(Cl)cc2[nH]1` was tested. Which relative growth did it give?
**A.** inactive: 0.958

**Q.** Which relative growth does the source give for `Cc1ccc(S(=O)(=O)N(C)C[C@H]2Oc3ccc(NC(=O)Nc4cccc5ccccc45)cc3CC(=O)N([C@H](C)CO)C[C@@H]2C)cc1` here?
**A.** inactive: 0.999

**Q.** `C[C@H](CO)N1C[C@H](C)[C@H](CN(C)S(=O)(=O)c2cccs2)Oc2ncc(C#CC(C)(C)O)cc2C1=O` was tested. Which relative growth did it give?
**A.** inactive: 1.01

**Q.** How did the relative growth turn out when `O=C(N[C@@H](c1ccccc1)c1ccc2ccccc2n1)C1CCN(C(=O)NC(c2ccccc2)c2ccccc2)CC1` was run?
**A.** inactive: 1.02

**Q.** With `COc1ccc(S(=O)(=O)N(C)C[C@@H]2Oc3c(NC(=O)Nc4cccc5ccccc45)cccc3C(=O)N([C@@H](C)CO)C[C@H]2C)cc1Cl` as the molecule, how does the relative growth read?
**A.** inactive: 1

**Q.** With `C[C@H]1CN([C@@H](C)CO)C(=O)CCCn2cc(nn2)CO[C@@H]1CN(C)C(=O)Nc1ccc(C(F)(F)F)cc1` as the molecule, how does the relative growth read?
**A.** inactive: 0.957

**Q.** Which relative growth does the source give for `CN1C(=O)c2cc(NS(C)(=O)=O)ccc2OC[C@H]2O[C@@H](CC(=O)N3CCOCC3)CC[C@@H]21` here?
**A.** inactive: 0.998

**Q.** Which relative growth does the source give for `C[C@@H]1CN([C@H](C)CO)C(=O)c2cc(NS(=O)(=O)c3ccccc3)ccc2O[C@H]1CN(C)S(=O)(=O)c1cccs1` here?
**A.** inactive: 1

**Q.** For `Cn1cnnc1Sc1c([N+](=O)[O-])ncn1C`, which relative growth is on record?
**A.** inactive: 0.894

**Q.** `C[C@@H]1CCCCO[C@H](CN(C)C(=O)Nc2ccccc2)[C@@H](C)CN([C@H](C)CO)C(=O)c2cc(NC(=O)c3ccncc3)ccc2O1` was tested. Which relative growth did it give?
**A.** inactive: 0.978

**Q.** How did the relative growth turn out when `C[C@@H]1CCCCO[C@@H](CN(C)C(=O)Nc2ccccc2)[C@@H](C)CN([C@@H](C)CO)C(=O)c2cc(NC(=O)Nc3ccccc3)ccc2O1` was run?
**A.** inactive: 1.05

**Q.** For `N[C@@H](CC(=O)Nc1ccc(Cl)cc1)C(=O)O`, which relative growth is on record?
**A.** inactive: 1.06

**Q.** For `CO[C@@H]1CN(C)C(=O)c2cc(NS(=O)(=O)CC(F)(F)F)ccc2OC[C@H](C)N(Cc2cccnc2)C[C@@H]1C`, which relative growth is on record?
**A.** inactive: 0.971

**Q.** With `COc1ccc(CN(C)C[C@@H]2OCCCC[C@@H](C)Oc3ccc(NC(=O)Nc4ccc(C(F)(F)F)cc4)cc3C(=O)N([C@@H](C)CO)C[C@@H]2C)cc1` as the molecule, how does the relative growth read?
**A.** inactive: 0.979

**Q.** For `C[C@@H]1CN([C@@H](C)CO)S(=O)(=O)c2ccc(C#Cc3ccccc3F)cc2O[C@H]1CN(C)CC1CCOCC1`, which relative growth is on record?
**A.** inactive: 1

**Q.** For `C[C@H](CO)N1C[C@H](C)[C@@H](CN(C)C(=O)Nc2ccccc2)Oc2ccc(NC(=O)CCN3CCOCC3)cc2CC1=O`, which relative growth is on record?
**A.** inactive: 0.981

**Q.** With `C[C@H]1CN([C@@H](C)CO)C(=O)c2cccc(NS(=O)(=O)c3cccs3)c2O[C@H]1CN(C)Cc1ccc(-c2ccccc2)cc1` as the molecule, how does the relative growth read?
**A.** inactive: 1.02

**Q.** For `CCn1cc(C(=O)O)c(=O)c2cc(F)c(N3CCN(C(=S)Nc4cc(C(F)(F)F)ccc4Cl)CC3)cc21`, which relative growth is on record?
**A.** active: 0.0858

**Q.** Which relative growth does the source give for `C[C@@H]1CCCCO[C@@H](CN(C)S(=O)(=O)c2cn(C)cn2)[C@@H](C)CN([C@H](C)CO)C(=O)c2cc(NC(=O)Nc3cccc4ccccc34)ccc2O1` here?
**A.** inactive: 1.02

**Q.** Which relative growth does the source give for `CC(C)NC(=O)Nc1ccc2c(c1)CC(=O)N([C@@H](C)CO)C[C@@H](C)[C@H](CN(C)Cc1ccc(-c3ccccc3)cc1)O2` here?
**A.** inactive: 1.01

**Q.** With `C[C@@H]1CCCCO[C@@H](CN(C)C(=O)Nc2ccc(F)cc2)[C@@H](C)CN([C@@H](C)CO)C(=O)c2cc(NC(=O)CCC(F)(F)F)ccc2O1` as the molecule, how does the relative growth read?
**A.** inactive: 0.993

**Q.** For `C[C@@H](NS(=O)(=O)c1cccc(F)c1)C(=O)O`, which relative growth is on record?
**A.** inactive: 1.03

**Q.** How did the relative growth turn out when `CCO[C@H]1OC(C(=O)N2CCN(Cc3ccc4c(c3)OCO4)CC2)=C[C@@H](c2csc3ccccc23)[C@@H]1CCCOC(=O)NCCCCCC(=O)NO` was run?
**A.** inactive: 0.982

**Q.** Which relative growth does the source give for `Cc1ccc(S(=O)(=O)N[C@@H](Cc2ccccc2)C(=O)NCCn2cc(C(=O)NO)nn2)cc1` here?
**A.** inactive: 1

**Q.** `C[C@@H]1CN([C@H](C)CO)C(=O)c2cc(NC(=O)Cn3cnnn3)ccc2O[C@H]1CN(C)C(=O)Nc1ccc(F)cc1` was tested. Which relative growth did it give?
**A.** inactive: 0.981

**Q.** `COc1ccc(S(=O)(=O)N(C)C[C@@H]2Oc3ccc(NC(=O)C4CC4)cc3CC(=O)N([C@@H](C)CO)C[C@@H]2C)cc1` was tested. Which relative growth did it give?
**A.** inactive: 0.986
